The text below walks through data of PubChem BioAssay AID1346428 (National Center for Advancing Translational Sciences (NCATS), 2018).

In all, about 48,000 compounds went through this assay and about 1,200 (2.5%) were called active. Another 2% or so got no clear call; they are omitted.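 Rule for the calls: active = activation of at least 60% and not above a set upper limit (about 1 call in 100 departs from these limits); inconclusive = activation of 40% to 60%, or above that upper limit; inactive = activation under 40%.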 This is one part of the list.

Chain of UniProt O75388 (O75388 whole entry, looked up): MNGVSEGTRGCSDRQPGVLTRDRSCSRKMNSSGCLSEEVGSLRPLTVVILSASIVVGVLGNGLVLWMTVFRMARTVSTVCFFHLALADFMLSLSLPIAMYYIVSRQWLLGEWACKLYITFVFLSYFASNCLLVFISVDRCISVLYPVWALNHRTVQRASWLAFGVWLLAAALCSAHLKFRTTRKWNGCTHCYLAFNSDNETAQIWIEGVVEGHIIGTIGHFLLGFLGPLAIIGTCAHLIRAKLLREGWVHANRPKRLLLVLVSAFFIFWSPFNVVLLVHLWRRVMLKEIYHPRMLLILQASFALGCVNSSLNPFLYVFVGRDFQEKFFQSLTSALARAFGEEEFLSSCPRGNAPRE

The target of this assay is Probable G-protein coupled receptor 32 (Homo sapiens) (UniProt O75388). Nature of the assay: qHTS for Agonists of Human Resolvin D1 Receptor DRV1. Note: 0% is about no effect. The settings on record: CHO-K1 GPR32 beta-arrestin PathHunter luminescence, 90 min; at 76.9 µM; stronger effect = higher value; zero percent set by DMSO-only wells. A digest of the protocol:
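Cells are plated overnight, treated with compounds in DMSO for 90 minutes at 37 °C, and developed with PathHunter detection reagent for 1 hour before luminescence is read; signal reflects beta-arrestin binding to GPR32 in engineered CHO-K1 cells.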
For orientation: qHTS replaces the single test concentration by a dilution series.
Regarding `O=C(NCC(c1cccnc1)N1CCN(Cc2ccccc2)CC1)C(=O)Nc1cccc(Cl)c1` (centres undefined), the activation is inactive: -3.38%.

`CCC(C(=O)NC1CCCCC1)n1c(SCc2cccc(C)c2)nc2ccncc21` (centres undefined): the activation was inactive: -9.96%.

As for `Cn1c(C(=O)N2CCC(C(=O)NCCc3ccccc3)CC2)cc2sccc21`, the activation is inactive: -7.55%.

On to `CCN(CC)CCNC(=O)c1cn(CC)c2ccc(S(=O)(=O)N(C)C3CCCCC3)cc2c1=O`, for which the activation is inactive: -7.48%.

Take `N#Cc1ccccc1CSc1nnc2ccc3ccccc3n12`: the activation was inactive: -1.78%.

Take `COCc1c(Br)c(C)nc2sc3c(=O)n(-c4cccc(Br)c4)nnc3c12`: the activation is inactive: -8.89%.

In the case of `Nc1ccc([N+](=O)[O-])cc1O`, the activation was inactive: -93.8%.

Regarding `CCN1C(=O)c2ccccc2S(=O)(=O)c2ccc(C(=O)NCc3ccc(OC)cc3)cc21`, the activation was inactive: -25.4%.

With `COc1cc(C(=O)NCCCCCC(=O)O)cc(OC)c1OC`, the activation is inactive: -24.2%.

As for `CC(NC(=O)c1ccco1)c1nc(-c2ccccc2)no1` (centres undefined), the activation was inactive: -29.2%.

Take `Cc1cc(=O)n(CC(=O)NC(C)c2ccccc2)c2c1c(C)nn2-c1cccc(F)c1` (centres undefined): the activation was inactive: -13.3%.

For the molecule `Cc1ccc(C)c(N2CCN(S(=O)(=O)c3ccc(-c4coc(C)n4)cc3)CC2)c1`, the activation is inactive: -0.886%.

Turning to `CCCCc1c(C)nc2c(-c3ccc(Cl)cc3)c(C)[nH]n2c1=O`, the activation was inactive: -27.4%.

In the case of `COc1cc(OC)cc(C(=O)Nc2ccc(-c3nc4cc(C(C)C)ccc4o3)cc2)c1`, the activation is inactive: -11.6%.

Take `COc1ccc(C(=O)c2sc3nc(-c4ccc(C)cc4)cc(C(F)(F)F)c3c2N)cc1`: the activation is inactive: -15.2%.

With `COc1ccc(-n2cc(-c3ccc4c(c3)OCO4)n(CC(=O)Nc3cccc(C)c3C)c2=O)c(OC)c1`, the activation was inactive: -7.27%.

As for `CCCCN(CCCNC(=O)c1cc(Nc2ccc(OC)cc2)nc2ccccc12)Cc1ccccc1`, the activation is inactive: -17.4%.

With `CCOC(=O)C(CC)n1nc(C)c2c(C)n(-c3ccc(C)cc3)nc2c1=O` (centres undefined), the activation is inactive: -9.01%.

For `O=S(=O)(Nc1ccc(F)c(Cl)c1)c1ccc(Br)s1`, the activation was inactive: 14.2%.

`Cc1ccc(S(=O)(=O)c2nc(S(=O)(=O)c3ccc(C)cc3)c(NCCCOC(C)C)s2)cc1`: the activation was inactive: -19.5%.

Consider `CCOC(=O)c1ccc(N2C(=O)c3n[nH]c(-c4cccs4)c3C2c2ccc(CC)cc2)cc1` (centres undefined), for which the activation was inactive: -17.2%.

For the molecule `O=c1c(S(=O)(=O)c2ccccc2)cn(Cc2ccc(F)cc2)c2cc(N3CCOCC3)c(F)cc12`, the activation was inactive: -28.5%.

On to `COc1cc2c3cc1Oc1cc(ccc1O)C[C@@H]1c4c(cc(OC)c(O)c4Oc4ccc(cc4)C[C@@H]3N(C)CC2)CC[N+]1(C)C`, for which the activation is inactive: 49.8%.

For the molecule `COc1ccc(CCNC(=O)CCCn2c(=O)c3ccccc3n(Cc3ccccc3C#N)c2=O)cc1OC`, the activation is inactive: 19.7%.

For the molecule `Cc1ccccc1-n1nc(CO)c(C(=O)NCC(c2ccccc2)c2ccccc2)n1`, the activation was inactive: -26.1%.

`O=C(COCc1cc(-c2ccc(F)cc2)on1)Nc1cc(Cl)ccc1O`: the activation is inactive: 11.6%.

Turning to `CC(=O)C1=C(c2ccc(Cl)c(Cl)c2)N(C(C)=O)n2c(nnc2-c2ccccc2)S1`, the activation is inactive: -15%.

For `Nc1nonc1C(=O)NCCNCc1ccccc1F`, the activation was inactive: 13.7%.

Regarding `COc1cccc2cc(-c3nc(Nc4cccc(C)c4C)sc3C)c(=O)oc12`, the activation was inactive: -34.6%.

For the molecule `CC(=O)Nc1nonc1-c1nnc(SCC(=O)Nc2cc(Cl)ccc2C)n1C`, the activation was inactive: -14.7%.

Turning to `CC1(C)[C@H](C(=O)O)N2C(=O)C[C@H]2S1(=O)=O`, the activation is inactive: 9.79%.

For `COc1cccc(C2C=C(c3ccccc3)Nc3c(C(=O)Nc4ccccc4)cnn32)c1OC` (centres undefined), the activation was inactive: -12.3%.

`COc1cc(C(CC(=O)Nc2cccc(C(C)=O)c2)N2Cc3ccccc3C2=O)cc(OC)c1OC` (centres undefined): the activation is inactive: 0.844%.

With `CCOC(=O)c1c(NC(=O)/C=C/c2ccc(C)cc2)sc(C(C)=O)c1C`, the activation is inactive: -6.22%.

On to `O=C(COCc1cc(-c2cccs2)on1)N1CCN(c2ccc(F)cc2)CC1`, for which the activation was inactive: -11%.

For the molecule `CCOc1cccc(NC(=O)c2sc3nc(-c4ccc(F)cc4)ccc3c2N)c1`, the activation is inactive: 33.7%.

In the case of `CCSc1ncc(Cl)c(C(=O)N(Cc2ccccc2)c2ccc(OC)cc2)n1`, the activation was inactive: -27%.

With `COc1cc(CNCCSc2nnnn2C)ccc1OCc1ccc(C)cc1`, the activation was inactive: 0.146%.

Turning to `O=c1c(=O)n(-c2ccccc2)ccn1Cc1c(F)cccc1Cl`, the activation was inactive: -16.2%.

On to `COc1cc(C(=O)Nc2ccc(-n3c(C)nc4ccccc4c3=O)cc2)cc(OC)c1OC`, for which the activation is inactive: 14%.

For `Cc1cc(C)cc(N2CC(c3nnc(NC(=O)c4ccco4)s3)CC2=O)c1` (centres undefined), the activation was inactive: -10.3%.

For the molecule `Cc1nc2cccnc2n1C1CCN(C(=O)Nc2ccccc2)CC1`, the activation is inactive: 0.964%.

With `O=C(c1ccccc1)N1CCCC(c2nc3c(nnn3Cc3ccc(F)cc3F)c(=O)[nH]2)C1` (centres undefined), the activation was inactive: -1.97%.

As to `Cc1ccc(-c2noc(-c3ccc(NCc4cccnc4)c([N+](=O)[O-])c3)n2)cc1`, the activation was inactive: 21.9%.

Take `CCCCn1c(=NC(=O)c2c(-c3c(F)cccc3Cl)noc2C)c(C(=O)OCC)cc2c(=O)n3ccccc3nc21`: the activation was inactive: -5.72%.

In the case of `Cc1nc(-c2ccc(Cl)cc2)oc1COC(C)(C)C(=O)O`, the activation was inactive: 13.2%.

On to `O=c1c2oc3ccccc3c2n(Cc2ccc(F)cc2)c(=O)n1Cc1ccco1`, for which the activation was inactive: -7.81%.

With `O=C(NCc1cccc(F)c1)c1ccc(CN2CC(=O)N3CCCCC3C2=O)cc1` (centres undefined), the activation is inactive: 2.44%.

Consider `CCOC(=O)C1CCN(C(c2ccc(OCC)cc2)c2c(O)cc(C)n(CCOC)c2=O)CC1` (centres undefined), for which the activation was inactive: -17.4%.

With `COc1ccc(CNS(=O)(=O)c2cc(Br)cc3c2N(C(C)=O)C(C)C3)cc1` (centres undefined), the activation is inactive: 19.3%.

In the case of `Cc1ccc(-n2cnc3cc(C(=O)NCc4ccc(F)cc4)ccc32)c(C)c1`, the activation is inactive: -2.5%.

On to `CCCCc1ccc(-n2nc3cc(Cl)c(NC(=O)c4ccc(OC)cc4)cc3n2)cc1`, for which the activation is inactive: -31.9%.

On to `CCOC(=O)c1ccc2nc(C)cc(Nc3ccc(OC(C)C)cc3)c2c1`, for which the activation is inactive: 22%.

As to `CCOC(=O)c1cccc(NS(=O)(=O)c2ccc3[nH]c4c(c3c2)CCCC4)c1`, the activation is active: 82%.
